Test results taken from the supplement of paper PMC7826260.
The list shows a part of the results. Cleavage of a single-stranded DNA pool by Rep nickase domains was read by sequencing for 1 h at 37 °C with 3 µM enzyme; only the middle of the 90-letter strands is printed. Values are log2 of uncut reads against the no-enzyme pool; uncut sequences lie near 0, cut ones below; no hit call is given. Reads are scaled to the total; uncut strands gain when others are lost, and binding without cutting may add a little.

Key:
Experiment in all cases: uncleaved DNA left, log2 of reads against the no-enzyme library (log2 ratio); higher = less cleavage (more negative = more Rep cleavage of the k-mer); sequences stand for … in CTCGTCCG…ACCGGAGA
[1] = tested on: T1, Rep nickase domain of Muscovy duck circovirus
T1 sequence (protein, residues 1-111, tag omitted): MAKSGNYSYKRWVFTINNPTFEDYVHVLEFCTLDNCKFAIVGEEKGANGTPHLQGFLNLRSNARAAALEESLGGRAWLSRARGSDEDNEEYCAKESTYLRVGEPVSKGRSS
Experimental: (§1)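 A pool of 90-nt single-stranded DNAs with seven random bases just before the constant AC of the nick site (name = the seven bases) was cut by 3 µM recombinant His6-SUMO-tagged Rep nickase domain (300 nM DNA, 50 mM HEPES pH 8.0, 50 mM NaCl, 1 mM MnCl2, 1 h, 37 °C, three replicates). Uncut DNA was amplified and sequenced.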

[2] = tested on: T2, Rep nickase domain of banana bunchy top virus
T2 sequence (protein, residues 1-94, tag omitted): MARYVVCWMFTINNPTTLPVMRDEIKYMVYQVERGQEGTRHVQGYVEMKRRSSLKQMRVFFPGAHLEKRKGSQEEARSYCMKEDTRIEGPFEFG
Experimental: as §1

[3] = tested on: T3, Rep nickase domain of cabbage leaf curl virus
T3 sequence (protein, residues 1-116, tag omitted): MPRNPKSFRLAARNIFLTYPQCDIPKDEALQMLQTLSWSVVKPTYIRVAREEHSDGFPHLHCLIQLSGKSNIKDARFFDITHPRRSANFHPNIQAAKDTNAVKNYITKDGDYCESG
Experimental: as §1

[4] = tested on: T4, Rep nickase domain of chickpea chlorotic dwarf virus
T4 sequence (protein, residues 1-124, tag omitted): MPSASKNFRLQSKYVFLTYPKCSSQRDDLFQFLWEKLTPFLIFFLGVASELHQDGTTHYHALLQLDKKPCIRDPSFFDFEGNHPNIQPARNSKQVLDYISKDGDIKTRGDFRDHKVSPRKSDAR
Experimental: as §1

[5] = tested on: T5, Rep nickase domain of faba bean necrotic yellows virus
T5 sequence (protein, residues 1-98, tag omitted): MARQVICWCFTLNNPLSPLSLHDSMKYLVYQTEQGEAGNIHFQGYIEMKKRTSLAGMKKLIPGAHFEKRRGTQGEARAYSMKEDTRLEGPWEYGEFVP
Experimental: as §1

[6] = tested on: T6, Rep nickase domain of maize striate mosaic virus
T6 sequence (protein, residues 1-117, tag omitted): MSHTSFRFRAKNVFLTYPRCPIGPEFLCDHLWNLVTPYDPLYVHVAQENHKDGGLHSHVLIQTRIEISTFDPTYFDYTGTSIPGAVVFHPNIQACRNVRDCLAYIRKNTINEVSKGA
Experimental: as §1

[7] = tested on: T7, Rep nickase domain of porcine circovirus 2
T7 sequence (protein, residues 2-116, tag omitted): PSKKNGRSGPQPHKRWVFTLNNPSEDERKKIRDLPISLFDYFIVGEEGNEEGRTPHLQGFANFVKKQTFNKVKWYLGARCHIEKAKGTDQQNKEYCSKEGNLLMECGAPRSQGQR
Experimental: as §1

[8] = tested on: T8, Rep nickase domain of tomato golden mosaic virus
T8 sequence (protein, residues 1-124, tag omitted): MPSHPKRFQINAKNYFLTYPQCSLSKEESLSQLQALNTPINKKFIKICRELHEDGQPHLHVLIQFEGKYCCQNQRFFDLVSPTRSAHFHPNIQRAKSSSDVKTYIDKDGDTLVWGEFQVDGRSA
Experimental: as §1

[9] = tested on: T9, Rep nickase domain of tomato yellow leaf curl virus
T9 sequence (protein, residues 1-136, tag omitted): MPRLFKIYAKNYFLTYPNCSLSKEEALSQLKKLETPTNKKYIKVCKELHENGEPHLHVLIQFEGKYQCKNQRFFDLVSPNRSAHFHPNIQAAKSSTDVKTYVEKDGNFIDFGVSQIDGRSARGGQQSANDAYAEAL
Experimental: as §1

[10] = tested on: T10, Rep nickase domain of wheat dwarf virus
T10 sequence (protein, residues 1-137, tag omitted): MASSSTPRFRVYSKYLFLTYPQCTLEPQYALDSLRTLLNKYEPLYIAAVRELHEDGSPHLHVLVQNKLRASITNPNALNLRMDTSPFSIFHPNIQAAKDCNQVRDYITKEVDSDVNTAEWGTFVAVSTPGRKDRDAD
Experimental: as §1

Sequence	uncleaved DNA left (log2) [1]	uncleaved DNA left (log2) [2]	uncleaved DNA left (log2) [3]	uncleaved DNA left (log2) [4]	uncleaved DNA left (log2) [5]	uncleaved DNA left (log2) [6]	uncleaved DNA left (log2) [7]	uncleaved DNA left (log2) [8]	uncleaved DNA left (log2) [9]	uncleaved DNA left (log2) [10]
TCTCAAT	0.0816	-0.146	0.146	-0.373	0.141	-0.124	-0.206	0.0207	0.0961	0.0418
GAGCGCC	0.111	-0.0166	0.158	0.552	-0.0208	0.837	0.0428	0.137	0.0969	0.12
AGCGACT	0.081	0.202	-0.0393	0.683	0.0202	1.71	0.181	0.12	0.0206	0.27
CAGCCAA	-0.18	-0.186	-0.19	-0.63	-0.119	-0.763	-0.204	-0.0457	-0.117	-0.148
TACCTTA	-0.143	-0.188	-0.309	-2.51	-0.0192	-0.579	-1.18	-0.122	-0.148	-0.212
ATGCTCA	-0.0614	0.0523	-0.0771	-1.09	-0.0185	-0.767	0.0229	0.0723	0.00437	0.00275
GCCATGG	-0.104	-0.112	-0.359	-0.00926	-0.0804	-0.828	0.0543	0.0359	-0.118	-0.127
CGTTCCG	-0.0364	-0.16	-0.93	-0.148	-0.0665	-0.939	0.0268	-0.193	-0.204	-0.178
TGGGCAT	-0.00773	-0.0993	0.736	1.94	-0.195	2.14	0.0841	-0.11	-0.14	0.0413
TAACCGG	0.0453	0.107	0.488	1.36	0.0588	1.79	0.101	0.138	0.0723	0.149
GGCGTGA	0.126	-0.00228	0.297	0.924	-0.0966	1.26	0.162	0.00834	-0.00563	0.0108
TCAGGTG	0.141	-0.000714	-0.256	-0.228	0.0315	-0.659	0.0671	0.0422	0.0299	0.052
ATGCAGG	0.168	0.131	0.194	0.271	0.128	-0.315	0.205	0.173	0.154	0.113
ACGAGAA	0.0208	-0.0993	-0.0509	0.267	-0.0207	-0.297	-0.128	-0.0966	-0.173	-0.0258
AACGAGG	0.219	0.112	0.361	0.996	0.0504	0.782	0.339	0.245	0.0941	0.168
GCGGAGG	0.0983	0.13	0.259	0.818	0.0749	1.02	0.0827	0.00376	-0.102	-0.112
TCCTAAC	0.0973	0.0484	-0.0536	-1.38	-0.0459	-0.575	0.107	0.0823	0.0683	0.0104
AATTCAA	-0.185	0.0362	-0.00938	-0.449	0.0766	-0.65	-0.367	0.109	0.0509	0.0952
GCGTCGT	0.0498	0.0451	-0.162	-0.0765	0.0514	-0.228	-0.144	0.00479	0.0825	-0.0563
CAGGAAG	-0.0831	0.0326	-0.589	-0.442	0.0455	-0.875	0.102	0.0467	-0.0319	-0.0575

Sequence	uncleaved DNA left (log2) [1]	uncleaved DNA left (log2) [2]	uncleaved DNA left (log2) [3]	uncleaved DNA left (log2) [4]	uncleaved DNA left (log2) [5]	uncleaved DNA left (log2) [6]	uncleaved DNA left (log2) [7]	uncleaved DNA left (log2) [8]	uncleaved DNA left (log2) [9]	uncleaved DNA left (log2) [10]
GCAGCGA	0.0281	-0.0857	-0.66	-0.0808	0.054	-0.627	0.174	-0.131	0.0721	-0.156
TGCGCAG	0.0617	0.0278	-0.14	0.12	0.0885	0.25	0.21	0.0328	-0.0402	-0.0449
TTGAGGA	0.0361	-0.0879	0.0133	0.11	0.0404	-0.467	0.0488	0.101	-0.055	-0.117
ATTACTT	-0.499	-0.706	-0.139	-2.54	0.155	-0.417	-2.97	0.0429	0.125	0.0581
CCGTGCG	-0.0163	-0.0297	-0.533	0.707	-0.0292	-0.0244	0.115	-0.0828	-0.157	-0.146
CCAAAGA	0.0265	0.0586	-0.0547	-0.163	0.136	-0.964	0.0979	0.132	-0.0236	0.123
AAATAGC	0.155	0.000623	-0.916	-1.14	0.122	-1.44	0.139	-0.0518	0.043	-0.0403
GAAAAAG	0.0186	0.0271	-0.588	-0.52	0.0868	-0.964	0.191	0.0708	-0.0148	-0.0764
ACATGGA	0.0235	-0.0713	-0.406	-0.407	-0.034	-0.916	0.0775	0.0758	-0.0163	-0.0739
TCTACCC	-0.275	-0.168	-0.0857	-2.25	-0.186	-0.319	-1.21	-0.263	-0.106	-0.118
CGGGGGA	-0.0314	0.0284	0.65	1.04	-0.0419	1.74	0.082	-0.0487	-0.0365	-0.0822
AGGGCTA	0.00303	0.0401	0.271	0.87	0.122	1.4	0.157	0.0875	-0.0408	0.114
TACTGTG	0.106	-0.0554	-0.653	-0.538	-0.0448	-1.14	0.00621	-0.0903	-0.00397	-0.141
TCGTCTT	-2.59	-0.754	-0.569	-2.2	-1.22	-0.272	-3.23	-0.215	-0.279	-0.463
GATCATA	0.0987	0.0615	0.284	-0.0311	-0.00881	1.28	0.1	-0.0107	0.0239	0.249
TAAGTTT	-0.144	-0.192	-4.3	-2.75	-0.112	-2.79	-1.32	-3.44	-0.0558	-3.8
ATCGCGC	-0.00727	-0.021	-0.676	0.137	0.0224	-0.735	0.0851	-0.058	-0.0144	-0.118
CGACATA	0.137	0.18	0.151	0.626	0.0374	1.27	0.141	-0.0621	0.0597	0.264
ATTGTTT	-0.189	-0.319	-0.286	-2.04	0.0185	-0.648	-2.28	-0.0805	-0.156	-0.15
GTTTCCT	0.0174	0.0349	0.448	0.618	0.0649	1.75	-0.171	0.0659	0.11	0.213

Sequence	uncleaved DNA left (log2) [1]	uncleaved DNA left (log2) [2]	uncleaved DNA left (log2) [3]	uncleaved DNA left (log2) [4]	uncleaved DNA left (log2) [5]	uncleaved DNA left (log2) [6]	uncleaved DNA left (log2) [7]	uncleaved DNA left (log2) [8]	uncleaved DNA left (log2) [9]	uncleaved DNA left (log2) [10]
CCCCTCC	-0.0994	-0.177	0.0507	0.0396	-0.0727	0.494	-0.171	-0.039	-0.141	-0.155
CCCCAGC	0.0173	-0.0741	-0.311	-0.51	-0.0617	-0.97	0.156	0.121	0.0962	0.0272
GTTTACG	0.0842	0.0339	-0.372	-0.654	0.0364	-0.567	0.174	0.0777	0.0389	-0.0467
TACACTC	0.0886	0.0187	-0.347	-1.59	-0.009	-0.709	0.0156	0.00934	-0.0594	-0.0479
CGGTGTT	-2.32	-0.512	-0.361	-1.2	-0.837	0.319	-2.91	-0.299	0.0148	-0.488
AGGCCTA	-0.042	0.00822	0.404	0.534	0.062	1.09	-0.0447	0.0418	-0.00096	0.0604
GGAAACT	-0.0238	0.0689	0.58	1.01	0.0225	1.96	0.111	-0.0616	0.00406	0.0993
GGGACAC	0.0709	0.0637	0.907	2.13	0.00711	2.38	0.224	0.0605	-0.147	0.203
GATACGC	-0.043	0.0257	0.0767	0.263	0.0693	-0.0553	0.107	-0.106	-8.01e-05	0.0359
TATTGTA	-3.14	-2.11	-0.503	-2.2	-0.0239	-1.19	-3.05	-0.2	0.067	-0.129
GTTGTAA	0.076	0.177	0.381	0.928	0.129	1.89	0.135	0.214	0.15	0.15
CTGTTTC	-0.0671	0.0682	0.0723	-0.0617	-0.0028	-0.517	-0.125	-0.146	-0.0329	-0.00369
CCCGACA	-0.197	-0.236	-0.199	-0.978	-0.248	-0.634	-0.385	-0.341	-0.285	-0.311
AGCTAGT	-0.286	-0.00316	-0.101	0.581	0.041	0.544	-3.37	0.118	0.000997	0.035
TTTAATT	-0.379	-0.0899	0.0323	-2.62	-0.0597	-0.448	-2.9	-0.0619	-0.0825	-0.168
GCAGATG	0.0431	0.0413	0.0855	0.546	-0.0551	0.561	0.253	0.224	0.0188	0.13
TTTCCGC	-0.114	-0.211	-0.509	-0.774	-0.203	-1.11	-0.584	-0.194	-0.182	-0.283
GCAGGCA	0.00421	0.0688	-0.00976	0.298	-0.0739	-0.186	0.0179	0.0408	-0.0164	-0.0624
CAGAATG	0.144	0.166	-0.0637	0.6	0.125	0.545	0.256	0.187	0.0692	0.161
AGTTTTA	-0.0717	-0.0186	-0.0511	-1.83	0.105	0.725	-0.815	0.134	0.109	-0.00218
